{
  "source": "PubChem BioAssay AID504332",
  "about": "(National Center for Advancing Translational Sciences (NCATS), 2011)",
  "note": "The campaign covered roughly 350,000 compounds. About 31,000 (8.9%) were called active. The inconclusive results got no clear call from the source; some entries with a clear call stand among them for comparison. The call rests on the fitted dose curve; in most records, active means well fitted inhibition curve with a large enough effect; inconclusive means small, poorly fitted or top-dose-only effect; inactive means no such curve, though single readings can be large or run the other way. Potencies beside an inconclusive call are fits to weak or partial responses and may not hold up. Potency means the concentration at half of the fitted maximal effect; tags describe the fitted curve by direction and shape.",
  "data": [
    {"molecular_target": "Histone-lysine N-methyltransferase EHMT2 (Homo sapiens) (UniProt Q96KQ7)", "sequence (Q96KQ7 whole entry, looked up)": "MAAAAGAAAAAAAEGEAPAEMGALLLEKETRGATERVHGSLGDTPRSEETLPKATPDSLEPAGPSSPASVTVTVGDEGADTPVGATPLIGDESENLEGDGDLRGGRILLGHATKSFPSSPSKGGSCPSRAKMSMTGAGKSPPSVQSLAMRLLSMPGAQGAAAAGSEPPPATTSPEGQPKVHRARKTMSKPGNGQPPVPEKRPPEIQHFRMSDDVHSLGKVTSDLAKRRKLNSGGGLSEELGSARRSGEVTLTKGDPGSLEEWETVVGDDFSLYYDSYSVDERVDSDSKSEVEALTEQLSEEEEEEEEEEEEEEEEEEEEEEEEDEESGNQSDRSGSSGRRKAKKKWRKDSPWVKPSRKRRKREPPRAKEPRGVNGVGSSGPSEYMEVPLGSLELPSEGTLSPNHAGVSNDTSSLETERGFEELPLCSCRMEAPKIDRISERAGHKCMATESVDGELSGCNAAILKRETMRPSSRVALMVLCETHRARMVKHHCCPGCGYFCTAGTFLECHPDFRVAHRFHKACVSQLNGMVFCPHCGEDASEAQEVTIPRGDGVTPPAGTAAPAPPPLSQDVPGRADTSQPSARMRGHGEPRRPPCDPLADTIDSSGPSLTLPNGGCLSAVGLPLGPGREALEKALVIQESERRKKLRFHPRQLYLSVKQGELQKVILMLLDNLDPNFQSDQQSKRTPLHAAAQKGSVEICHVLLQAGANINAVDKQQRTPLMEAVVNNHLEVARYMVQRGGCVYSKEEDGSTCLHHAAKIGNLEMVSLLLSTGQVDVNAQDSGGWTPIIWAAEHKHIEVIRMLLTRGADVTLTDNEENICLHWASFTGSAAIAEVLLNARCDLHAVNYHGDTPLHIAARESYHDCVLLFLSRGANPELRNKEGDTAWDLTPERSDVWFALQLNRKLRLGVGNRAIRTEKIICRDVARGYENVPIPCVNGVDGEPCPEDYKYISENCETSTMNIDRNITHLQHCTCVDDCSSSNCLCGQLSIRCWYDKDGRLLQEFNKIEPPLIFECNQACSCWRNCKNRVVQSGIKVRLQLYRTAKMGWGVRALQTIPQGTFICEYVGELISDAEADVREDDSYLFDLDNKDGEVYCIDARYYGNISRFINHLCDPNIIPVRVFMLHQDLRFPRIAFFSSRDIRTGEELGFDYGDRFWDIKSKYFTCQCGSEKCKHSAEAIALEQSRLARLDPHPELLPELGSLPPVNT", "experiment": "qHTS Assay for Inhibitors of Histone Lysine Methyltransferase G9a; further: nearly all actives have a fitted effect of over 75% in size", "conditions": "G9a H3K9 monomethylation, AlphaScreen, 2 h; series mostly up to 59 µM", "method_in_brief": "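Quantitative HTS format: methyltransferase activity on a biotin-tagged H3K9 peptide is measured by AlphaScreen, using a rabbit anti-monomethyl-H3K9 antibody with streptavidin donor and anti-IgG acceptor beads. Final levels are 20 nM enzyme, 500 nM peptide, 20 uM SAM; 2 h RT.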", "values": [
      {"smiles": "CCC(C(=O)Nc1cc(Cl)c(OC)cc1OC)c1ccccc1", "note": "(stereo not drawn)", "Potency": "inactive"},
      {"smiles": "CCOC(=O)N1CCN(C(=O)c2ccc3c(=O)n(Cc4ccc(OC)cc4)c(=S)[nH]c3c2)CC1", "Potency": "inconclusive: 39.8 µM [inhibitor, single point]"},
      {"smiles": "COc1ccc(/C=N/c2oc(-c3ccccc3)cc2C#N)cc1OC", "Potency": "inconclusive: 14.1 µM [inhibitor, partial curve, poor fit]"},
      {"smiles": "CCCN(CCC)C1CC(=O)N(Cc2ccccc2)C1=O", "note": "(stereo not drawn)", "Potency": "active: 25.1 µM"},
      {"smiles": "O=C(CN1C(=O)CSc2ccc(S(=O)(=O)N3CCCCC3)cc21)NCc1cccnc1", "Potency": "inconclusive: 89.1 µM [inhibitor, partial curve, poor fit]"},
      {"smiles": "CC1CCCN(c2ccc(C(=O)OCC(=O)N3c4ccccc4Sc4ccccc43)cc2[N+](=O)[O-])C1", "note": "(stereo not drawn)", "Potency": "inconclusive: 8.91 µM [inhibitor, full curve, poor fit]"},
      {"smiles": "O=C(Nc1ccc(F)cc1F)c1noc2c1CCC2", "Potency": "inconclusive: 7.08 µM [inhibitor, single point]"},
      {"smiles": "O=C(O)c1ccc(CS(=O)(=O)c2c(Cl)cccc2Cl)o1", "Potency": "inconclusive: 70.8 µM [inhibitor, partial curve, poor fit]"},
      {"smiles": "COC(=O)c1cc2sc(C)cc2n1Cc1ccccc1", "Potency": "inactive"},
      {"smiles": "COc1ccc(OC)c(-c2cc(C(=O)Nc3c(C)nn(Cc4ccc(Cl)cc4)c3C)no2)c1", "Potency": "inconclusive: 1.78 µM [inhibitor, partial curve, poor fit]"},
      {"smiles": "O=C(Nc1nc(-c2ccc(Cl)s2)cs1)c1cccs1", "Potency": "active: 50.1 µM"},
      {"smiles": "O=S(=O)(Nc1ccc2nc(N3CCOCC3)sc2c1)c1ccccc1", "Potency": "active: 50.1 µM"},
      {"smiles": "NC(=S)Nc1ccc2c(c1)OCO2", "Potency": "inconclusive: 50.1 µM [inhibitor, partial curve]"},
      {"smiles": "C[C@]12CCC3C(CC=C4C[C@@H](O)CC[C@@]43C)C1CCC2[C@]1(C)CCC(=O)O1", "note": "(stereo partly drawn)", "Potency": "inconclusive: 39.8 µM [inhibitor, single point]"},
      {"smiles": "CCC(C)(C)C1CCC2(CC1)NC(=O)N(CC(=O)NCCOc1ccccc1)C2=O", "note": "(stereo not drawn)", "Potency": "inconclusive: 10 µM [inhibitor, partial curve, poor fit]"},
      {"smiles": "CC(O)(CS(=O)(=O)Cc1ccccc1)c1ccccc1", "note": "(stereo not drawn)", "Potency": "inconclusive: 56.2 µM [inhibitor, partial curve, poor fit]"},
      {"smiles": "O=C(Cc1ccc(-n2c(=O)[nH]c3ccccc3c2=O)cc1)N1CCN(c2ccccc2)CC1", "Potency": "inconclusive: 12.6 µM [inhibitor, partial curve, poor fit]"},
      {"smiles": "CC(Sc1nc2c(c(=O)n(C)c(=O)n2C)n1Cc1cc2c(cc1Cl)OCO2)C(=O)O", "note": "(stereo not drawn)", "Potency": "inconclusive: 2 µM [inhibitor, full curve, poor fit]"},
      {"smiles": "CCC1CCCCN1C(=O)c1sc2ncnc(N(CC)CC)c2c1C", "note": "(stereo not drawn)", "Potency": "inconclusive: 89.1 µM [inhibitor, single point]"},
      {"smiles": "CCSC1(SCC)N=C(N)C2(C#N)C(c3ccccc3)NC3=C(CCC3)C12C#N", "note": "(stereo not drawn)", "Potency": "inconclusive: 3.55 µM [inhibitor, single point]"},
      {"smiles": "COC(=O)C1=C(C)OC(N)=C(C#N)C1c1c(C)nn(C)c1C", "note": "(stereo not drawn)", "Potency": "inconclusive: 28.2 µM [inhibitor, partial curve, poor fit]"},
      {"smiles": "O=C(c1cc(-c2ccncc2)nc2ccccc12)N1CCOCC1", "Potency": "inactive"},
      {"smiles": "CN(CC(=O)Nc1ccc(F)c(F)c1F)C(=O)c1cc(-c2ccncc2)nc2ccccc12", "Potency": "active: 56.2 µM"},
      {"smiles": "Cc1nc(NC(=O)c2ccccc2)sc1-c1csc(NCc2ccco2)n1", "Potency": "inconclusive: 2.51 µM [inhibitor, partial curve, poor fit]"},
      {"smiles": "COc1ccc(/C=N/N2CCOCC2)cc1OCc1ccccc1", "Potency": "active: 50.1 µM"},
      {"smiles": "O=S(=O)(c1ccc(Br)cc1)c1nc(-c2ccco2)oc1SCc1ccccc1F", "Potency": "inconclusive: 25.1 µM [inhibitor, single point]"},
      {"smiles": "Cc1nn(-c2ccc(Cl)cc2)c(NC(=O)C(C)C)c(-c2ccccc2)c1=O", "Potency": "inactive"},
      {"smiles": "COc1ccc(-c2cccc(NS(=O)(=O)c3cccs3)c2)nn1", "Potency": "inactive"},
      {"smiles": "Cc1cnc(NC(=O)c2sc(Nc3ccccc3)nc2N)o1", "Potency": "inconclusive: 14.1 µM [inhibitor, partial curve, poor fit]"},
      {"smiles": "CCCCC(=O)Nc1c(O)c2ccccc2[nH]c1=O", "Potency": "inconclusive: 1.41 µM [inhibitor, partial curve, poor fit]"},
      {"smiles": "Nc1ccc(C(CC(=O)O)n2cccc2)cc1", "note": "(stereo not drawn)", "Potency": "inconclusive: 44.7 µM [inhibitor, partial curve]"},
      {"smiles": "Cn1cc(C(=O)N/N=C/c2ccc([N+](=O)[O-])cc2)c2ccccc21", "Potency": "inconclusive: 89.1 µM [inhibitor, single point]"},
      {"smiles": "O=C(c1cccs1)N1CCC(c2nc3c(nnn3Cc3cccc(Cl)c3)c(=O)[nH]2)CC1", "Potency": "inactive"},
      {"smiles": "CC(C)NC(=O)NC(=O)CSc1ccc(S(=O)(=O)N2CCOCC2)cn1", "Potency": "active: 44.7 µM"},
      {"smiles": "COC(C(=O)NNS(=O)(=O)c1ccc([N+](=O)[O-])cc1)c1ccccc1", "note": "(stereo not drawn)", "Potency": "inconclusive: 44.7 µM [inhibitor, partial curve]"},
      {"smiles": "NC(=O)c1ccc(NC(=O)CC23CC4CC(CC(Br)(C4)C2)C3)cc1", "Potency": "inconclusive: 89.1 µM [inhibitor, single point]"},
      {"smiles": "COc1cc(/C=C(\\C#N)c2nc3ccccc3n2C)cc(OC)c1O", "Potency": "active: 22.4 µM"},
      {"smiles": "Cc1ccc(N(CC(=O)NCCSc2nc3ccccc3s2)S(=O)(=O)c2ccccc2)c(C)c1", "Potency": "inconclusive: 89.1 µM [inhibitor, single point]"},
      {"smiles": "Clc1ccccc1CSc1nncn2c1cc1occc12", "Potency": "inconclusive: 7.94 µM [inhibitor, partial curve, poor fit]"},
      {"smiles": "O=C(CCCn1c(=O)c2cccn2c2ccccc21)Nc1cccc(Cl)c1", "Potency": "inactive"},
      {"smiles": "CCc1cc(Cl)c(OC)c(C(=O)NC[C@@H]2CCCN2CC)c1O", "Potency": "inactive"},
      {"smiles": "Cc1ccc2onc(CC(=O)N3CCN(c4ccccc4F)CC3)c2c1", "Potency": "inactive"},
      {"smiles": "Cc1cccc(-c2nc3ccc(C(=O)NCCN4CCN(C)CC4)cc3nc2-c2cccc(C)c2)c1", "Potency": "active: 70.8 µM"}
    ]}
  ]
}
